# Several values for one entry are separate records, joined by “and”; a condition that tells them apart may be missing. Equal values may be shown once. The shares of active, inactive and inconclusive entries below differ from those in the screen. For some assays here: Potencies of inconclusive entries are doubtful fits and often do not repeat. Activity calls are given as the source filed them. Unless noted, calls follow the shape of the dose curve; as a rule, active = well fitted curve in the direction sought with a large enough effect in the repeat runs; inconclusive = weak or mixed curves; inactive = no such curve, though single readings can be large; an effect the other way counts as inactive or inconclusive.
# Columns and labels:
# [1] = biological target: Peroxisome proliferator-activated receptor gamma (Homo sapiens) (UniProt P37231); experiment: qHTS assay to identify small molecule agonists of the peroxisome proliferator-activated receptor gamma (PPARg) signaling pathway (AID 743094; active = well fitted activation curve with a large enough effect in the signal ratio in the repeat runs, not every such curve was filed as active; inconclusive = weak or mixed curves, or effect the other way; inactive = no such curve, though single readings can be large or run the other way; the % refers to the signal ratio; also: potency is read from the fitted curve at half-maximal effect; as to activation: % is scaled to controls: 0 for no effect and ±100 for the full control effect); conditions: HEK293H PPARg-UAS-bla, beta-lactamase FRET ratio, 17 h; activation: at 57 µM (top of the series) unless noted
# Chain of UniProt P37231 (P37231 whole entry, looked up): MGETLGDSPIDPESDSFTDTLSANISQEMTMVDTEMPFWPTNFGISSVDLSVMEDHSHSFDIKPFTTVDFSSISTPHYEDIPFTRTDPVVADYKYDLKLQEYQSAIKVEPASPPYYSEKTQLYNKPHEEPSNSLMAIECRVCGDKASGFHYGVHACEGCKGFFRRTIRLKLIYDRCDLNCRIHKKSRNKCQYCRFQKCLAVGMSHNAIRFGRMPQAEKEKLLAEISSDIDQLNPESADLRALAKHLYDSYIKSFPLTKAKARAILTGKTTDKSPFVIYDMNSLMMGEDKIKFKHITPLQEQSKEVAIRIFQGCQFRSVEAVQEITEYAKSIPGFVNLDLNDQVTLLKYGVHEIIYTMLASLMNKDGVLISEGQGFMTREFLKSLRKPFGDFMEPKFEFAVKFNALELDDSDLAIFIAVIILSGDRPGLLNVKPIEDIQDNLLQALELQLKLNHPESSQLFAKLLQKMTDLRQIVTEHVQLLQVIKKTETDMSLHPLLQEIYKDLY
# In short: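 GeneBLAzer PPARg UAS-bla HEK293H cells were plated, rested 5 h, then exposed to compounds for 17 h at 37C. Beta-lactamase activity was read by LiveBLAzer B/G FRET substrate fluorescence after 1 h at room temperature.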
# [2] = biological target: Peroxisome proliferator-activated receptor gamma (Homo sapiens) (UniProt P37231); experiment: qHTS assay to identify small molecule antagonists of the peroxisome proliferator-activated receptor gamma (PPARg) signaling pathway (AID 743191; calls by dose curve; also: nearly all actives have a fitted effect of over 30% in size; also: potency is read from the fitted curve at half-maximal effect); conditions: HEK293H PPARg-UAS-bla, beta-lactamase ratio, antagonist, 17 h; ratio activity, negative = inhibition: at 62.6 µM (top of the series) unless noted
# In short: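 GeneBLAzer PPARg UAS-bla HEK293H cells, 5 h post-plating, exposed to compounds 17 h at 37C. LiveBLAzer B/G FRET substrate added for 1 h at room temperature; beta-lactamase reporter read by fluorescence intensity.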
# [3] = qHTS assay to identify small molecule antagonists of the peroxisome proliferator-activated receptor gamma (PPARg) signaling pathway - cell viability counter screen (AID 743194); conditions: PPARg-bla HEK293H viability, CellTiter-Glo luminescence, 17 h, co-treated with 50 nM rosiglitazone; activity change, negative = cytotoxicity: at 62.6 µM (top of the series) unless noted; also: nearly all actives have a fitted effect of over 55% in size; also: potency is read from the fitted curve at half-maximal effect
# In short: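 Cytotoxicity counter screen in PPARg-bla HEK293H cells, same wells as reporter assay. Compounds plus 50 nM rosiglitazone (final) for 17 h at 37 C, then viability read by CellTiter-Glo luminescence.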
# [4] = qHTS assay for small molecule activators of the heat shock response signaling pathway - cell viability counter screen (AID 743209); conditions: HSE-bla HeLa viability, CellTiter-Glo luminescence, 5 h; activity change, negative = cytotoxicity: at 62.6 µM (top of the series) unless noted; also: potency is read from the fitted curve at half-maximal effect; nearly all actives have a fitted effect of over 50% in size
# In short: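 HSE-bla HeLa cells plated overnight, then exposed to Tox21 compounds (23 nL in DMSO) for 5 h at 37 C. After the bla reporter read, CellTiter-Glo was added in the same wells and luminescence read after 30 min at room temperature.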
# [5] = qHTS assay for small molecule activators of the heat shock response signaling pathway (AID 743210; active = well fitted activation curve with a large enough effect in the signal ratio in the repeat runs, with a control signal flat, not every such curve was filed as active; inconclusive = weak or mixed curves; the % refers to the signal ratio; also: potency is read from the fitted curve at half-maximal effect); conditions: HeLa HSE-bla reporter, beta-lactamase ratio, 5 h; activation: at 62.6 µM (top of the series) unless noted
# In short: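 Quantitative high-throughput format using an engineered HeLa line in which heat shock response elements drive beta-lactamase; after 5 h with compound, cells received a B/G FRET substrate and fluorescence was read.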
# [6] = qHTS assay to identify small molecule agonists of the peroxisome proliferator-activated receptor delta (PPARd) signaling pathway - cell viability counter screen (AID 743211); conditions: PPARd-bla HEK293H viability, CellTiter-Glo luminescence, 17 h; activity change, negative = cytotoxicity: at 62.6 µM (top of the series) unless noted; also: potency is read from the fitted curve at half-maximal effect; nearly all actives have a fitted effect of over 55% in size
# In short: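 Tox21 library compounds, delivered in DMSO, were incubated 17 h with PPARd-bla HEK293H cells; cytotoxicity was taken from CellTiter-Glo luminescence read 30 min after reagent addition.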
# [7] = biological target: Peroxisome proliferator-activated receptor delta (Homo sapiens) (UniProt Q03181); experiment: qHTS assay to identify small molecule agonists of the peroxisome proliferator-activated receptor delta (PPARd) signaling pathway (AID 743212; calls by dose curve; also: potency is read from the fitted curve at half-maximal effect; as to activation: % is scaled to controls: 0 for no effect and ±100 for the full control effect); conditions: HEK293H PPARd-UAS-bla, beta-lactamase FRET ratio, 17 h; activation: at 62.6 µM (top of the series) unless noted
# Chain of UniProt Q03181 (Q03181 whole entry, looked up): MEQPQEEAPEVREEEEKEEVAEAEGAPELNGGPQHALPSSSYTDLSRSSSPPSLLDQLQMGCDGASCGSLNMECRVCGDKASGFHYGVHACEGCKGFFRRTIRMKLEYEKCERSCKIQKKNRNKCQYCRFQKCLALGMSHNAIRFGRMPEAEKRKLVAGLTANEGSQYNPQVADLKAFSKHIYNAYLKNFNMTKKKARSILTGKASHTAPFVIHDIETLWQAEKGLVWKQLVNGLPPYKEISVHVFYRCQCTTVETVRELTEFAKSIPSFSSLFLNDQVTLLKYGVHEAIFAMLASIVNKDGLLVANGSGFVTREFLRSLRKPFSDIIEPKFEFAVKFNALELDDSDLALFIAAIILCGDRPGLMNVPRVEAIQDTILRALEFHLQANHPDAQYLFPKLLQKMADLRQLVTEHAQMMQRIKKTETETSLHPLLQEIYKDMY
# In short: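 Quantitative high-throughput agonist screen in a HEK293H beta-lactamase reporter line under UAS control. Compounds in DMSO, at 37 C. Fluorescence read after 2 h with FRET substrate at room temperature.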
# [8] = qHTS assay to identify small molecule antagonists of the peroxisome proliferator-activated receptor delta (PPARd) signaling pathway - cell viability counter screen (AID 743213); conditions: PPARd-bla HEK293H viability, CellTiter-Glo luminescence, 17 h; viability change, negative = cytotoxic: at 62 µM (top of the series) unless noted; also: nearly all actives have a fitted effect of over 50% in size; also: potency is read from the fitted curve at half-maximal effect
# In short: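 PPARd-bla HEK293H cells (3000/well) got compound plus 300 nM L165041 agonist for 17 h at 37 C. Viability in the same wells came from CellTiter-Glo luminescence after 30 min at room temperature.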
# [9] = biological target: Bile acid receptor (Homo sapiens) (UniProt Q96RI1); experiment: qHTS assay to identify small molecule antagonists of the farnesoid-X-receptor (FXR) signaling pathway (AID 743217; active = well fitted inhibition curve with a large enough effect in the signal ratio in the repeat runs, not every such curve was filed as active; inconclusive = weak or mixed curves, or effect the other way; inactive = no such curve, though single readings can be large or run the other way; the % refers to the signal ratio; also: potency is read from the fitted curve at half-maximal effect); conditions: HEK293T FXR-UAS-bla, beta-lactamase ratio, CDCA-stimulated, 16 h; activity change, negative = inhibition: at 62.6 µM (top of the series) unless noted
# Chain of UniProt Q96RI1 (Q96RI1 whole entry, looked up): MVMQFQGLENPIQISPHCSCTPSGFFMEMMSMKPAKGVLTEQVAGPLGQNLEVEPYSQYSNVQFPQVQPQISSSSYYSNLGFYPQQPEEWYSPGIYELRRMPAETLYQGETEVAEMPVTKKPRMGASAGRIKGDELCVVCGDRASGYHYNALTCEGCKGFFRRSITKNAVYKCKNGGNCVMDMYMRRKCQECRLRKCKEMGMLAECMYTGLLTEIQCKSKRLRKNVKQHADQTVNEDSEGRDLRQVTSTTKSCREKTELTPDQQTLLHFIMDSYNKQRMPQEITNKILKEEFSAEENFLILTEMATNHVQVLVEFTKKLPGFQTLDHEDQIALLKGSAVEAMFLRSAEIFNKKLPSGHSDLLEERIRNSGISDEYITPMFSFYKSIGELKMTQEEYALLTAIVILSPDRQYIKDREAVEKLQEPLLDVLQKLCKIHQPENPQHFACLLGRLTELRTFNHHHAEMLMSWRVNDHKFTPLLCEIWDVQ
# In short: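 FXR-UAS-bla HEK 293T cells (beta-lactamase reporter) given compound plus chenodeoxycholic acid (50 uM final), 16 h at 37C. LiveBLAzer B/G FRET substrate added for 2 h at room temperature; fluorescence read.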
# [10] = qHTS assay to identify small molecule agonists of the farnesoid-X-receptor (FXR) signaling pathway - cell viability counter screen (AID 743218); conditions: FXR-bla HEK293T viability, CellTiter-Glo luminescence, 16 h; viability change, negative = cytotoxic: at 62.6 µM (top of the series) unless noted; also: nearly all actives have a fitted effect of over 45% in size; also: potency is read from the fitted curve at half-maximal effect
# In short: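 FXR-UAS-bla HEK 293T cells exposed to compounds for 16 h at 37C. Cytotoxicity read in the same wells by CellTiter-Glo luminescence after 30 min at room temperature, following the beta-lactamase FRET read.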
# [11] = biological target: Vitamin D3 receptor (Homo sapiens) (UniProt P11473); experiment: qHTS assay to identify small molecule antagonists of the vitamin D receptor (VDR) signaling pathway (AID 743223; active = well fitted inhibition curve with a large enough effect in the signal ratio in the repeat runs, not every such curve was filed as active; inconclusive = weak or mixed curves, or effect the other way; inactive = no such curve, though single readings can be large or run the other way; the % refers to the signal ratio; also: potency is read from the fitted curve at half-maximal effect); conditions: VDR-UAS-bla HEK293T, beta-lactamase FRET ratio, 16 h; activity change, negative = inhibition: at 61 µM (top of the series) unless noted
# Chain of UniProt P11473 (P11473 whole entry, looked up): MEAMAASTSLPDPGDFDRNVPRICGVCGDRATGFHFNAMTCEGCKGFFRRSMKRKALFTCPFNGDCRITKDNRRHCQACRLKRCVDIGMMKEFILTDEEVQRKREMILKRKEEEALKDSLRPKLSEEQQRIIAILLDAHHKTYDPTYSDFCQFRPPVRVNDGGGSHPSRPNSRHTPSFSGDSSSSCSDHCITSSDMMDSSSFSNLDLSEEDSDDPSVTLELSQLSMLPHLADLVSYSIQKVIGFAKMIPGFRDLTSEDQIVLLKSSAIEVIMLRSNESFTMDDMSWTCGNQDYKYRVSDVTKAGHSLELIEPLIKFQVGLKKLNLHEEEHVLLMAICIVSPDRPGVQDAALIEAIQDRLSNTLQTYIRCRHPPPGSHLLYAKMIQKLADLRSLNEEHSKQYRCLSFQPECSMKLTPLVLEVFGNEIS
# In short: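 Quantitative HTS in VDR-bla reporter cells stimulated with 1alpha,25-dihydroxyvitamin D3, 3 nM final. Compound exposure 16 h, 37C, 5% CO2. Read-out: beta-lactamase FRET substrate fluorescence, 2 h RT.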
# [12] = qHTS assay to identify small molecule agonists of the vitamin D receptor (VDR) signaling pathway - cell viability counter screen (AID 743224); conditions: VDR-bla HEK293T viability, CellTiter-Glo luminescence, 16 h; activity change, negative = cytotoxicity: at 62.6 µM (top of the series); also: nearly all actives have a fitted effect of over 50% in size; also: potency is read from the fitted curve at half-maximal effect
# In short: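 VDR-bla cells, 4 h after plating, exposed to compounds for 16 h at 37C; viability then read in the same wells as CellTiter-Glo luminescence after 30 min at room temperature, following the bla FRET read.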
# [13] = qHTS assay for small molecule agonists of the antioxidant response element (ARE) signaling pathway (AID 743202; active = well fitted activation curve with a large enough effect in the signal ratio in the repeat runs, not every such curve was filed as active; inconclusive = weak or mixed curves, or effect the other way; inactive = no such curve, though single readings can be large or run the other way; the % refers to the signal ratio; also: potency is read from the fitted curve at half-maximal effect); conditions: HepG2 ARE-bla reporter, beta-lactamase FRET, 16 h
# In short: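 Agonist mode reporter screen: HepG2 cells with ARE-controlled beta-lactamase are incubated with test compounds for 16 h at 37 C, and beta-lactamase activity is measured as fluorescence of cleaved B/G FRET substrate.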
# [14] = biological target: Vitamin D3 receptor (Homo sapiens) (UniProt P11473); experiment: qHTS assay to identify small molecule agonists of the vitamin D receptor (VDR) signaling pathway (AID 743222; calls by dose curve; also: potency is read from the fitted curve at half-maximal effect); conditions: HEK293T VDR-UAS-bla, beta-lactamase FRET ratio, 16 h; activation: at 63.5 µM (top of the series) unless noted
# In short: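 VDR-bla cells plated 4 h at 37 C, then exposed to compounds for 16 h at 37 C. Beta-lactamase reporter activity measured by fluorescence after 2 h room-temperature loading with LiveBLAzer B/G FRET substrate.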
# [15] = biological target: Bile acid receptor (Homo sapiens) (UniProt Q96RI1); experiment: qHTS assay to identify small molecule agonists of the farnesoid-X-receptor (FXR) signaling pathway (AID 743220; active = well fitted activation curve with a large enough effect in the signal ratio in the repeat runs, not every such curve was filed as active; inconclusive = weak or mixed curves, or effect the other way; the % refers to the signal ratio; also: % is scaled to controls: 0 for no effect and ±100 for the full control effect); conditions: HEK293T FXR-UAS-bla, beta-lactamase FRET ratio, 16 h; activation: at 62.6 µM (top of the series) unless noted
# In short: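 Beta-lactamase reporter under UAS control in GeneBLAzer FXR HEK 293T cells (5000/well) measured with LiveBLAzer FRET substrate after 2 h at room temperature. Compound exposure lasted 16 h at 37C.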
# [16] = qHTS assay to identify small molecule antagonists of the farnesoid-X-receptor (FXR) signaling pathway - cell viability counter screen (AID 743221; active = well fitted cell-killing curve with a large enough effect in the repeat runs, not every such curve was filed as active; inconclusive = weak or mixed curves, or effect the other way; inactive = no such curve, though single readings can be large or run the other way; also: potency is read from the fitted curve at half-maximal effect; nearly all actives have a fitted effect of over 50% in size); conditions: FXR-bla HEK293T viability, CellTiter-Glo luminescence, 16 h; activity change, negative = cytotoxicity: at 62.6 µM (top of the series) unless noted
# In short: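 Cytotoxicity is taken from ATP luminescence (CellTiter-Glo, 30 min, room temperature) in FXR-bla HEK 293T cells previously incubated 16 h at 37 C with compound and chenodeoxycholic acid at 50 uM final.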
# [17] = biological target: Peroxisome proliferator-activated receptor delta (Homo sapiens) (UniProt Q03181); experiment: qHTS assay to identify small molecule antagonists of the peroxisome proliferator-activated receptor delta (PPARd) signaling pathway (AID 743215; active = well fitted inhibition curve with a large enough effect in the signal ratio in the repeat runs, not every such curve was filed as active; inconclusive = weak or mixed curves, or effect the other way; inactive = no such curve, though single readings can be large or run the other way; the % refers to the signal ratio;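 also: cells stimulated with agonist L165041 at 300 nM final during compound exposure; % is scaled to controls: 0 for no effect and ±100 for the full control effect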); conditions: HEK293H PPARd-UAS-bla, beta-lactamase FRET ratio, antagonist, 17 h; ratio activity, negative = inhibition: at 62 µM (top of the series) unless noted
# In short: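 PPARd-bla HEK293H cells (UAS-bla reporter) preincubated 5 h, then given compound plus 300 nM final L165041 agonist for 17 h at 37 C. Beta-lactamase activity read by LiveBLAzer B/G FRET substrate fluorescence after 2 h at room temperature.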
# [18] = qHTS assay for small molecule agonists of the antioxidant response element (ARE) signaling pathway - cell viability counter screen (AID 743203; calls by dose curve; also: potency is read from the fitted curve at half-maximal effect; nearly all actives have a fitted effect of over 55% in size); conditions: ARE-bla HepG2 viability, CellTiter-Glo luminescence, 16 h; viability change, negative = cytotoxic: at 73.3 µM (top of the series)
# In short: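 ARE-bla HepG2 cells were plated, rested 5 h at 37C/5% CO2, then exposed to compounds in DMSO for 16 h. Viability was read as CellTiter-Glo luminescence after 30 min at room temperature, in the same wells as the ARE screen.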
# [19] = activation: at 73.3 µM (top of the series) unless noted
# Tags tell the direction and shape of the fitted curve or compound fluorescence and quenching.
smiles,measurement,setting,value
C1CN(SSN2CCOCC2)CCO1,Potency,[1],inactive
same,Potency,[2],"inconclusive: 49 µM [inhibitor, single point]"
same,Potency,[3],"inconclusive: 38.9 µM [cytotoxic, partial curve, poor fit]"
same,Potency,[4],"inconclusive: 9.67 µM [cytotoxic, full curve]"
same,Potency,[5],inconclusive: 56.5 µM [activator] and inconclusive: 58.2 µM [activator]
same,Potency,[6],"inconclusive: 54.4 µM [cytotoxic, partial curve, poor fit]"
same,activation,[7],inconclusive: -12%
same,Potency,[8],"inconclusive: 5.49 µM [cytotoxic, full curve, poor fit]"
same,Potency,[9],inconclusive: 61 µM
same,Potency,[10],"inconclusive: 12.2 µM [rising, full curve, poor fit]"
same,Potency,[11],inconclusive: 54.4 µM
same,"activity change, negative = inhibition",[11],inconclusive: 0.896%
same,Potency,[12],"inconclusive: 54.4 µM [cytotoxic, single point]"
CCN(CC)CCCN(c1ccccc1)C1Cc2ccccc2C1,activation,[1],inconclusive: 2.12%
same,Potency,[2],inactive
same,Potency,[3],"inconclusive: 21.1 µM [cytotoxic, partial curve, poor fit]"
same,Potency,[13]; [19],"inconclusive: 13.3 µM [falling, partial curve, poor fit]"
same,Potency,[6],"inconclusive: 5.96 µM [cytotoxic, full curve]"
same,Potency,[8],"inconclusive: 7.5 µM [cytotoxic, full curve]"
same,Potency,[14],inactive
same,Potency,[11],inactive
OC[C@@H](O)[C@@H](O)[C@H](O)[C@H](O)CO,Potency,[1],inactive
same,Potency,[2],inactive
same,"activity change, negative = cytotoxicity",[3],inconclusive: 34.2% [at 81.1 µM]
same,Potency,[13]; [19],inactive
same,Potency,[8],"inactive and inconclusive: 237 nM [cytotoxic, partial curve, poor fit]"
same,Potency,[10],inactive
CCCCC(CC)COC(=O)COc1cc(Cl)c(Cl)cc1Cl (centres undefined),Potency,[1],inactive
same,"ratio activity, negative = inhibition",[2],inconclusive: 1.5%
O=c1[nH]cnc2nc[nH]c12,Potency,[1],inactive
same,Potency,[2],"inconclusive: 29.8 µM [activator, single point]"
same,Potency,[3],inactive
same,Potency,[13]; [19],inactive
same,Potency,[8],"inconclusive: 0.119 µM [cytotoxic, single point]"
same,Potency,[12],"inconclusive: 33.5 µM [rising, partial curve, poor fit]"
CCO[Si](CC(C)C)(OCC)OCC,activation,[1],inconclusive: -17.4%
same,Potency,[2],inactive
same,"activity change, negative = cytotoxicity",[3],inconclusive: -30.8% [cytotoxic]
same,activation,[13]; [19],inconclusive: 14.8%
same,Potency,[6],"inconclusive: 43.6 µM [cytotoxic, partial curve]"
same,Potency,[8],"inconclusive: 61.6 µM [cytotoxic, single point]"
CC(CN(C)C)CN1c2ccccc2CCc2ccccc21 (centres undefined),activation,[1],inconclusive: -12.1% [at 26.2 µM]
same,"ratio activity, negative = inhibition",[2],inconclusive: -28.2%
same,Potency,[3],"inconclusive: 29.8 µM [cytotoxic, single point]"
same,Potency,[13]; [19],inactive
same,activation,[7],inconclusive: -11.8%
same,Potency,[8],active: 29.8 µM
same,Potency,[10],active: 8.41 µM
same,Potency,[15],inactive
same,Potency,[16],"inconclusive: 18.8 µM [falling, partial curve]"
same,Potency,[12],"inconclusive: 29.8 µM [cytotoxic, single point]"
COC(=O)C(C)Oc1ccc(Oc2ncc(C(F)(F)F)cc2Cl)cc1 (centres undefined),Potency,[1],"inactive and inconclusive: 11 µM [activator, partial curve, poor fit]"
same,Potency,[2],inactive
same,Potency,[3],"inconclusive: 6.25 µM [rising, full curve, poor fit]"
same,activation,[13]; at 73.3 µM (top of the series),inconclusive: -28.1%
same,activation,[13]; at 94.8 µM (top of the series),inconclusive: 7.86%
same,Potency,[4],"inconclusive: 4.96 µM [cytotoxic, partial curve, poor fit]"
same,"ratio activity, negative = inhibition",[17],inconclusive: -17.2%
same,Potency,[12],inactive
CCCCN(CCCC)c1ccc(C(=O)c2ccccc2C(=O)O)c(O)c1,Potency,[1],"inconclusive: 1.75 µM [rising, full curve, poor fit]"
same,Potency,[2],inconclusive: 8.79 µM
same,Potency,[3],active: 44.1 µM
same,Potency,[13]; [19],"inconclusive: 61.7 µM [falling, single point]"
same,Potency,[18],inconclusive: 69.2 µM [cytotoxic]
same,Potency,[4],active: 62.2 µM
same,Potency,[5],inconclusive: 55.5 µM
same,Potency,[6],active: 44.1 µM
same,Potency,[7],"inconclusive: 19.7 µM [rising, partial curve]"
same,Potency,[8],active: 44.1 µM
same,Potency,[9],"inconclusive: 49.4 µM [rising, partial curve, poor fit]"
same,Potency,[10],inconclusive: 49.4 µM [cytotoxic]
same,Potency,[14],"inconclusive: 17.5 µM [rising, partial curve]"
same,Potency,[11],"inconclusive: 31.2 µM [fluorescent, partial curve]"
same,Potency,[12],inconclusive: 55.5 µM [cytotoxic]

# Source: PubChem BioAssay (Tox21)
